# Laboratory results reported in the supplement of paper PMC11417369.
# ± gives the standard deviation of the averaged measurements. This is one part of the list.
# Tested on: PfAP2-EXP AP2 domain (GST-tagged)
# Assay: gcPBM binding intensity (ln(normalized median fluorescence intensity)); higher = stronger DNA binding
# Procedure, shortened: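 Alexa488 anti-GST antibody, scanned at 488 nm, detected GST-tagged P. falciparum DNA-binding domains that had been expressed in E. coli and incubated for 1 h on an Agilent 4 × 180k array. The array carried primer-extended double-stranded 36-bp intergenic genomic probes and negative controls. Binding intensity is the highest Masliner-normalised natural-log median intensity across replicate spots of either orientation of each probe.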
row,Sequence,gcPBM binding intensity (ln)
1,ACCTACATAACATACACACGCATATATATAATTTTA [CACACA_site2847],8.99 ± 0.46
2,TATTTAATAAAGAAATAAAAATAAAGAAAAAAAAAA [CACACA_negctrl_site74],8.34 ± 0.36
3,GGCAACAATGTAGATTGTACATATGAATTTTACAAT [XGTACX_site5655],8.44 ± 0.31
4,ATATATATTATCATTGTGCACTTATTTATATACCTT,9.38 ± 0.13
5,ATATTTTGTTTTATAGTGCACATGGGCATATATTAA [GTGCAC_site9435],8.88 ± 0.26
6,TTTACTTTTTTTTCTTGTACTCATACATACTATCAT [XGTACX_site4919],8.9 ± 0.32
7,AAATTTCAATAATCTACACACATAAAAAAACAAAAG [CACACA_site1702],8.82 ± 0.52
8,TTTAATAAATAAATAAATAAAATATATTAAAAACCA [CACACA_negctrl_site80],8.38 ± 0.36
9,ATATTTTATTATTGTTGTACTTTTTTTTTTTGATTG [XGTACX_site4091],8.73 ± 0.5
10,ATAATATGAAAACACACACACACACTAATAAAAAAA [CACACA_site8617],8.51 ± 0.35
11,ATATAAAAATTAAAATGTACATATCTTATTATAATA [XGTACX_site983],8.32 ± 0.34
12,GTTTAAAAAAATTATCAACTTTAAAAAGGTAACATT [XGTACX_negctrl_site203],8.26 ± 0.42
13,TAATAAAATAATATCACACATATTTATATATATTAT [CACACA_site5814],8 ± 0.33
14,CAACATAAAAATTAAGCATGCAATAGACTTGTGTTG [TGCATGCA_site417],9.66 ± 0.37
15,GTAGTAAATAGGAGGATGCATATGGCACACATTATA [TGCATGCA_negctrl_site59],9.02 ± 0.26
16,TTATCACATAAACGATGTACGTACTAGGTTTTTTTT [XGTACX_site2147],8.49 ± 0.4
17,TTTTTTTTTTTTTTTTTTTTCATTCAATTATATTTA [CACACA_negctrl_site712],8.04 ± 0.33
18,ATAAAAAGGAAACACACACACACACCCATATATATA [CACACA_site904],8.73 ± 0.44
19,TGAATAATATACATACGTACATACATATATATAATA [XGTACX_site1302],8.32 ± 0.3
20,AAAGGAATATAATGATGTACACAAATATATATACAT [XGTACX_site5347],8.66 ± 0.33
21,AACTAATATAATAATACATGCACATAAAAATATATA [TGCATGCA_site606],9.01 ± 0.14
22,TATTTTTTTATTTGTGCATGTCATATTTAAACATAA [TGCATGCA_site1006],8.93 ± 0.38
23,CACGCATACGGACACACACACACACCGATATATATA [CACACA_site4521],8.72 ± 0.39

row,Sequence,gcPBM binding intensity (ln)
1,TATATGTTTAATTTCACACACAAATATACATTTTAA [CACACA_site4171],8.34 ± 0.38
2,AGTAGATTTTTATTAGTGCATTTTATACTACAAAAA,8.55 ± 0.21
3,AAGAAAATGTAGAATTAGAAATAAATGAAGAAATGA [TGCATGCA_negctrl_site548],8.9 ± 0.42
4,CATTAGCATTTTATTACACACAATAAATTAGAAGTA [CACACA_site7837],8.4 ± 0.35
5,TTTTAAAACAATGAGATTCCTTTCTTTTTTTCTTTT [CACACA_negctrl_site1320],7.96 ± 0.59
6,ATATTTATTTATATCATACACACTAATATGTATATT [CACACA_site7576],8.54 ± 0.3
7,CTTAATGATAAATACATACACACAAAAAATAATATA [CACACA_site2577],8.64 ± 0.4
8,TATCCCTTAGAATACACACCCATATGAGGGTGAACT [CACACA_site5610],8.22 ± 0.42
9,CGCAAAACAATGATACGTACATATATATATATATAT [XGTACX_site5883],10.3 ± 0.33
10,ATATTCTCTTAAATATGTACGTATGTATATATATAT [XGTACX_site5885],9.68 ± 0.16
11,ATTCTTAAATGTGGTTGTACATATTATCACCTTTAA [XGTACX_site8188],8.56 ± 0.35
12,TTTTTAATTTTATATACACACATAAAAGATATGAAG [CACACA_site7470],8.24 ± 0.38
13,AATGTAAAGAACAAAACATGCAACTAGTTTACTTTT [TGCATGCA_site841],8.73 ± 0.42
14,TAATTCTTTATTTTTCGTACGTAAAACAAAAAATAT [XGTACX_site862],8.44 ± 0.38
15,TAGAAAAAAGATAGCACACACGGCCCAATATATATA [CACACA_site5354],8.8 ± 0.23
16,TAAGTATATAAAATTACACACTATTTTTTTTCAAGT [CACACA_site1792],8.13 ± 0.39
17,TCGAATATCTTATAGGTGCATCATAAATACATATGT,8.69 ± 0.28
18,TTAATTTCGAATTATTGTACATTAATATATCTACAG [XGTACX_site3314],8.54 ± 0.44
19,AAAACAAATAGACACGCACACAAAAAAAAAAAAAAA [CACACA_site801],8.31 ± 0.51
20,ATATATATATATATATGTACATAAATATAAATTTAA [XGTACX_site8715],10.2 ± 0.24
21,GAATAAAAAAAAAAAAAAATTTATTTTATAATAAAA [CACACA_negctrl_site1514],7.95 ± 0.57
22,ATGCAATAATAATGGAGTACATATTAATATTGATCA [XGTACX_site2312],8.86 ± 0.4
23,CCTTTTGGATGAAAGTGTACAGGTGAGAAAAATTCC [XGTACX_site3358],8.75 ± 0.35

row,Sequence,gcPBM binding intensity (ln)
1,AAAAAATATATTAAGGCACACACATACATATATATA [CACACA_site9239],8.79 ± 0.3
2,TTTGTTGGTATGGTTACACACATTTAGGAAATAAAA [CACACA_site1411],8.36 ± 0.33
3,TCTTATAAATTAAATATAAAAAAAAAAAAAAAAAAA [XGTACX_negctrl_site77],7.8 ± 0.4
4,AGTATTTTGTTTATCACACATATTGGAATTTTCAAT [CACACA_site4686],8.51 ± 0.21
5,AAAATTATACACACACGTACATATAAATAGAAATAT [XGTACX_site1753],8.77 ± 0.5
6,AAAATAATTCAATGTAGTACAATACAAATTGAGAGA [XGTACX_site5991],8.56 ± 0.29
7,AAAAAAAAAAAAAATAAATAAATAAATAAATATATA [GTGCAC_negctrl_site382],8.14 ± 0.67
8,CCTTTTTATTTTTGTAGTACTACATATACATATCTG [XGTACX_site7791],8.96 ± 0.45
9,AAATGGACAGTATAAAAATGGAGAATATAAAAATTT [CACACA_negctrl_site889],8.71 ± 0.43
10,GGTGTTTTTCACAGATGTACACAAATAAAAAAGAAA [XGTACX_site4454],8.73 ± 0.46
11,TATATATAAAAAAAAAGTACATATAATATAATATTT [XGTACX_site7902],8.41 ± 0.28
12,TATTCAAAGAAAAACTGTACGTGTAGCAAACGTCAT [XGTACX_site7713],8.71 ± 0.39
13,ATATTAAAAAAATATAAACACACAAAAAAAAAATAT [CACACA_site8283],8.83 ± 0.47
14,GACCCCATATACATATGTACATACATAATATATATA [XGTACX_site1817],9.04 ± 0.5
15,TTTTTATAACAGCTTAGTACATATAAGAATTCTTGC [XGTACX_site5890],8.62 ± 0.5
16,AATGTACGCATATACACACACATAAATAGATACGTA [CACACA_site3406],8.6 ± 0.51
17,AATAGTTAAATACATACATGCATTCATATAATATAT [TGCATGCA_site433],8.63 ± 0.43
18,TAATTAAGAATATATAGTACATAGTTGAAAAACTTT [XGTACX_site6359],8.41 ± 0.33
19,AAGATAAAAATATGCACACATATATATATATATATA [CACACA_site404],10.1 ± 0.35
20,AACGAAAACACTACGTGTACCAAACGTCCTACCAAC [XGTACX_site257],8.62 ± 0.49
21,TTCAAAAAATATATCTGTACAAATTATGTAGATGAA [XGTACX_site5522],8.49 ± 0.37
22,TTTTTTTTTTTTTTTTTTTTACGATATATTTTAAAA [XGTACX_negctrl_site401],8.03 ± 0.67
23,TTTTTACTTATTTATTATGTACAATTTCTTCTTTCT [CACACA_negctrl_site264],8.62 ± 0.42

row,Sequence,gcPBM binding intensity (ln)
1,TAGATCATAACAATTGCACACATTTGCATTTATATT [CACACA_site1562],8.54 ± 0.22
2,CATATGTTATATGTAGTGCATTACTATAGGATTTAT [GTGCAC_site9860],8.82 ± 0.014
3,TATTTTGCAAAATGTGCATGTTGTGTATTATGTGAC [TGCATGCA_site59],9.2 ± 0.099
4,ATATATAATATTGGTGGTACAAGGGTATTTTATATT [XGTACX_site8215],8.61 ± 0.44
5,TATAATATACTATGTGGTACATATATATATTTATAG [XGTACX_site4556],8.12 ± 0.26
6,ATTATAATATATATATGTACATATATATATAATACT [XGTACX_site5092],8.49 ± 0.34
7,GTATAATTGGAAATTACACACCTTAGAATGTAACAT [CACACA_site4059],8.22 ± 0.35
8,TCATTTATTTTTCTTTGTACACAAAAGTTTTTATGT [XGTACX_site690],8.82 ± 0.33
9,TATTCTAAGATAAGTGGTACTTATATATAATATATA [XGTACX_site8316],8.13 ± 0.4
10,TGGTATGCAATATTGGTGCGTATATATTTTAAAGGG,8.96 ± 0.23
11,TATTTTTAATTTTTTAATGGTTTAATATTTTTATAT [CACACA_negctrl_site1186],8.18 ± 0.39
12,ATATATATATATATATGTACATAAACATATATATAT [XGTACX_site1064],10.2 ± 0.21
13,TCTTTAGCTTCTTCTTTTTTTTTTTTTTTTTTTTTT [XGTACX_negctrl_site518],8.71 ± 0.24
14,TAGATGTAAGTACATACACACATATATAAATAAATA [CACACA_site8528],8.65 ± 0.34
15,AAAAAACAAATAAGTAAACACACATATATAATATAT [CACACA_site8830],8.82 ± 0.38
16,CTAATTGTTATTTTGTGTACTTATCATTCGAAATAT [XGTACX_site7963],8.81 ± 0.35
17,ATATATATTTTAATTACACACAAAAAAAAAAAAAAA [CACACA_site4778],8.23 ± 0.45
18,TTATATATTTTTAGGTGTACTTTTTTTTTTTTTTTT [XGTACX_site8164],8.38 ± 0.36
19,AAAATAATGAAATGAAAAAAAAAAATTTAGATTCTA [CACACA_negctrl_site1385],8.28 ± 0.51
20,AAAAAAAAAAAAAATACACACATATTTTATAGGGGA [CACACA_site3261],8.32 ± 0.42
